# Experimental data from PMC4336329 (PLoS ONE, 2015).
# Among all 310,000 compounds or so, about 2,200 (0.71%) showed an effect of 50% or more. Effects have a minus sign here. The list shows a part of the results.
# Target: human ether-à-go-go-related gene (hERG) potassium channel (human, UniProt Q12809)
# Assay: primary screen, population patch clamp on CHO cells stably expressing hERG
# Sequence of human ether-à-go-go-related gene (hERG) potassium channel (Q12809 whole entry, looked up): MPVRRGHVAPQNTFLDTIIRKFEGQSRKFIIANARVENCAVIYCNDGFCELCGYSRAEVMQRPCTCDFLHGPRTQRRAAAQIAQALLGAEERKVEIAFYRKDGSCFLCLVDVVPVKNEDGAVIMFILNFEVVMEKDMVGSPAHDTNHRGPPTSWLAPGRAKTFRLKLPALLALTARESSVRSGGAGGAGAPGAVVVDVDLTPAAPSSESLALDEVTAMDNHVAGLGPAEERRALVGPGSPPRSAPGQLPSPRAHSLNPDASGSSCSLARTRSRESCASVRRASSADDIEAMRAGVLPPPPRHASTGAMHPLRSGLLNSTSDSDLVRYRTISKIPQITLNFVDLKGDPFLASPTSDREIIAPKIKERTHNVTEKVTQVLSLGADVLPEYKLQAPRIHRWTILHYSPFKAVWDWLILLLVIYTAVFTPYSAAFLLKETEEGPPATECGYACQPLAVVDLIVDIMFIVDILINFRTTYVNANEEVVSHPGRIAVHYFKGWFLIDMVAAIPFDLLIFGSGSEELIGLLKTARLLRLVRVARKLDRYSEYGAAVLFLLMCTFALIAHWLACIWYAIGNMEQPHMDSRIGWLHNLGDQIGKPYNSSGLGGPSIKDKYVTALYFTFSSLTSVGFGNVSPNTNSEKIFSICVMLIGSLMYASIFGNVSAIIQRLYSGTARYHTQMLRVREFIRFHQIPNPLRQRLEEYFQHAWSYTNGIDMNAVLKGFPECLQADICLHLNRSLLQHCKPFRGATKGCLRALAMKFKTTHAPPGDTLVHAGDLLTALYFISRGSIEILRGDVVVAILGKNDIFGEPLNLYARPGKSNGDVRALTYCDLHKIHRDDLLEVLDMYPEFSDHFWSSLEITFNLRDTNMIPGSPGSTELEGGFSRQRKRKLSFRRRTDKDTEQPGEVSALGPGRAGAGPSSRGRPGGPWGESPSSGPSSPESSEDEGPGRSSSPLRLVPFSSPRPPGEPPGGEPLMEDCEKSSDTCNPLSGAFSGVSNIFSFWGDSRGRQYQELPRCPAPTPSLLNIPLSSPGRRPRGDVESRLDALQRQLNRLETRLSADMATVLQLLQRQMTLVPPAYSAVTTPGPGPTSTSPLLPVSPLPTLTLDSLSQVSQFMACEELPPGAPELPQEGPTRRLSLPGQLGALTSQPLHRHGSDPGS
row,Compound,"hERG current change (%, negative = inhibition) at 1uM [%]"
1,CN(CC(=O)NCc1ccc2c(c1)OCO2)S(=O)(=O)c1ccc(F)cc1,4.04
2,Cc1ccc(S(=O)(=O)C(NC(=O)c2ccccc2)=C(Cl)Cl)cc1,9.53
3,N#Cc1nc(COc2ccc(F)cc2)oc1NCCN1CCOCC1,6.6
4,CC1CCCCN1CC(=O)NC(c1ccccc1)c1ccccc1.O=C(O)C(=O)O (stereo not drawn),-29.9
5,ClC(Cl)(Cl)c1nc2ccccc2n2nncc12,16
6,COc1ccc(S(=O)(=O)N2CCOCC2)cc1NC(=O)CSc1cccc[n+]1[O-],0.662
7,Cc1cc(C)cc(C(=O)NCC(=O)OCC(=O)N2CCN(S(=O)(=O)c3ccc4ccccc4c3)CC2)c1,3.54
8,COc1ccc(C(=O)Oc2ccc[nH]c2=O)cc1,8.98
9,CNC(=O)COC(=O)/C=C/c1c(C)nn(-c2ccccc2)c1C,6.15
10,O=C(Nc1ccc2sc3ccccc3c(=O)c2c1)c1ccccc1Cl,6.45
11,Cc1cc(C)nc(SC(C)C(=O)Nc2ccc(S(N)(=O)=O)cc2)n1 (stereo not drawn),2.97
12,Cc1c(NC(=O)c2cc(-c3ccc(F)cc3)on2)c(=O)n(-c2ccccc2)n1C,6.4
13,O=C(CCN1C(=O)/C(=C/C=C/c2ccccc2)SC1=S)Nc1nccs1,-3
14,O=C(N/N=C/c1ccc([N+](=O)[O-])cc1)c1cccnc1,13.9
15,CCOC(=O)c1[nH]c2ccc(Br)cc2c1NC(=O)CCN1CCN(C(=O)OCC)CC1,-0.782
16,NC1=NC[C@H](Cc2ccccc2)N1CCc1cc(C(F)(F)F)cc(C(F)(F)F)c1,12.8
17,O=C(c1csc(Nc2ccccc2Cl)n1)N1CCCC1,4.89
18,O=S(=O)(c1ccc(Cl)cc1)N1CCCC1c1nc(-c2ccc(Cl)cc2)no1 (stereo not drawn),17.6
19,COCCCNC(=S)N/N=C/c1cccc(OC)c1O,12.7
20,CCc1cccc2[nH]c3cc([N+](=O)[O-])ccc3c12,8.01
21,CC(C)OP(=O)(OC(C)C)C(NC(=O)c1cccc([N+](=O)[O-])c1)C(N)=O (stereo not drawn),6.46
22,CCC1SC2=NC(C)=C(C(=O)OCC(C)C)C(/C=C/c3ccccc3OC)N2C1=O (stereo not drawn),-14.9
23,C=CCNc1nc(Cl)nc(Nc2cc(Cl)ccc2OC)n1,16.3
24,CC(C)n1cc(-c2nc(C(=O)NN)cs2)c(=O)n(Cc2ccccc2)c1=O,5.65
25,CCN1CCCC1CNC(=O)c1csc2c1CCCC2 (stereo not drawn),1.22
26,Cc1ccc2[nH]c3nc(N/N=C/c4cccc(O)c4)nnc3c2c1,19.5
27,Cc1cccc(-n2c(O)c(/C=N/NC(=O)c3ccncc3)c(=O)[nH]c2=O)c1,14.2

row,Compound,"hERG current change (%, negative = inhibition) at 1uM [%]"
1,Cc1ccc(CS(=O)(=O)CCC(=O)NC2CC2)cc1,1.21
2,COc1cc(-c2nnn(CC(=O)NCc3ccccc3)n2)cc(OC)c1OC,-3.31
3,CCc1nnc(NC(=O)c2ccc3c(c2)C(=O)N(C(C)(C)C)C3=O)s1,8.45
4,O=C(/C=C/c1ccccc1)Nc1cccnc1Cl,17.2
5,O=[N+]([O-])c1cc(-c2nnc(Nc3ccc(O)cc3)c3ccccc23)ccc1N1CCOCC1,15.9
6,COc1ccc(C2C(C(=O)Nc3ccc4c(c3)OCCO4)c3ccccc3C(=O)N2C)cc1 (stereo not drawn),13.4
7,CC(C(=O)N1CCOCCOCCOCCOCCOCC1)N1C(=O)c2ccccc2C1=O (stereo not drawn),4.46
8,Cc1ccc(N2C(=O)N(CC(=O)Nc3cccc(C)c3C)C(=O)C2C)cc1 (stereo not drawn),11.4
9,Nc1ccc(C2(c3ccc(N)cc3)c3ccccc3C(=O)c3ccccc32)cc1,12.1
10,CC(C)CNC(=O)Nc1ccc(F)c(Cl)c1,-1.79
11,COc1ccc(-c2nn(-c3ccccc3)cc2C(=O)N2c3ccc(C)cc3C3CN(C)CCC32)cc1 (stereo not drawn),15.4
12,Nc1nc(SCc2ccc(Cl)cc2Cl)ns1,10.3
13,CN(Cc1ccccc1)S(=O)(=O)c1cccc2cccnc12,0.857
14,O=C(Nc1cccc(S(=O)(=O)NC2=NCCC2)c1)c1cc(Cl)ccc1[N+](=O)[O-],12.7
15,O=C(Nc1ccccc1Cl)c1ccccc1,9.54
16,O=C(N/N=C/c1ccncc1)c1cccc([N+](=O)[O-])c1,3.59
17,COC(=O)c1sc(N)c(C(=O)OC)c1COC(=O)CNS(=O)(=O)c1ccc(C)cc1,5.45
18,Cc1ccc(NCC(=O)N/N=C\c2cccc(O)c2)cc1,15.1
19,CCOC(=O)C1CC=C(Cl)CC1C(=O)Nc1nccs1 (stereo not drawn),13.3
20,COc1cc(OCc2ccccc2)c(C(=O)/C=C/c2ccc3c(c2)OCO3)c(OC)c1OC,8.05
21,Cc1ccc(N=C2NC(=O)/C(=C/c3cccs3)S2)cc1C,9.94
22,CCCCn1c(N)c(N(CCOC)C(=O)C2CCN(S(=O)(=O)c3ccc(Cl)cc3)CC2)c(=O)[nH]c1=O,17.3
23,COc1ccc(C2CC(=O)Oc3c(C(CCN4CCN(c5ccccc5)CC4)c4ccc(N(C)C)cc4)c(OC)cc(OC)c32)cc1 (stereo not drawn),16.6
24,O=S(=O)(Nc1cccc(-c2ccc(N3CCCCCC3)nn2)c1)c1ccccc1F,7.16
25,CCCOC(=O)C1C2C=CC(C2)C1C(=O)OCC(=O)c1ccccc1 (stereo not drawn),-3.56
26,O=C(C/C=N/OCc1ccc(Cl)cc1Cl)c1ccccc1,-3.92
27,O=c1nc2ccccc2c2n1CC(CN1CCN(Cc3ccccc3)CC1)N2 (stereo not drawn),-34.9
